Measured values as given in patent US20240425561A1 (Hoffmann-La Roche, published 2024).

T1: IL-7 receptor (IL-7Ra/common gamma chain) on activated human CD4 T cells (human, UniProt P16871 21-459; P31785 23-369)
T1 sequence (looked up) 1: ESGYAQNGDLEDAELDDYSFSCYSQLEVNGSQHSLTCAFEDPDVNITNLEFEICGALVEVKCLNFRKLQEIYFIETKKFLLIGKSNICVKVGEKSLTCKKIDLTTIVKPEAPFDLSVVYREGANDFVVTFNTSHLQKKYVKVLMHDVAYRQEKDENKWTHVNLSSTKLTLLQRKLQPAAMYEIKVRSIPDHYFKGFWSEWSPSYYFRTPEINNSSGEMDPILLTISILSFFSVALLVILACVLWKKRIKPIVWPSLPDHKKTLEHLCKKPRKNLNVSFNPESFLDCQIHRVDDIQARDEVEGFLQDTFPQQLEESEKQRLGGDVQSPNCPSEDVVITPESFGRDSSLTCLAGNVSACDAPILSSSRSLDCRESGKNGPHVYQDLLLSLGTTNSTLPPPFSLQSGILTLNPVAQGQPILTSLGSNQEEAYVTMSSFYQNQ
T1 sequence (looked up) 2: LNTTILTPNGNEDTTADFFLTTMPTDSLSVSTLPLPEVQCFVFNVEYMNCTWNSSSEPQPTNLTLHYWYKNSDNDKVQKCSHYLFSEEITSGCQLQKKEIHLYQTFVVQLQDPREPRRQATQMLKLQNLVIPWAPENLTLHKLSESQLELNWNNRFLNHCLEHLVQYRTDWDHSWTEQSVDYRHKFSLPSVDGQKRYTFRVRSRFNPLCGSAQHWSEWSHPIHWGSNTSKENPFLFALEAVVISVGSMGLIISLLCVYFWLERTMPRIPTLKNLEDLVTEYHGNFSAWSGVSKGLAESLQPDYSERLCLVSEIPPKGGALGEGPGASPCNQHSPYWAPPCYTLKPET


Key:
[1] = target: T1, IL-7 receptor (IL-7Ra/common gamma …); assay: cell-based or functional assay
[2] = target: human PD-1 on activated CD4 T cells (human, UniProt Q15116 25-288); assay: cell-based or functional assay
Chain of UniProt Q15116 (Q15116 25-288 limits assumed): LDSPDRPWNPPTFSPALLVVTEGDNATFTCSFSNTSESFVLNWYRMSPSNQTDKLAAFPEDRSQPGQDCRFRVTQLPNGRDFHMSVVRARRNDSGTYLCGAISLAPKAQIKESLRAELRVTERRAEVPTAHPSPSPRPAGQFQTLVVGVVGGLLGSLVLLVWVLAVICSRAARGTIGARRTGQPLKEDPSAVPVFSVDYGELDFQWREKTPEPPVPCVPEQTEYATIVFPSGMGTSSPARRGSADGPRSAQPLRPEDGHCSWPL

| Binder | Fold reduction in potency as EC50 [PD1^+]/EC50 [PD1^+ PD1-IL7wt] [1] [fold] | cis-activity as EC50 [PD1^- pre-blocked]/EC50 [PD1^+] [2] [fold] |
| --- | --- | --- |
| PD1-IL7 VAR18/VAR21 fully glycosylated (other) light: DIVMTQSPDSLAVSLGERATINCKASESVDTSDNSFIHWYQQKPGQSPKLLIYRSSTLESGVPDRFSGSGSGTDFTLTISSLQAEDVAVYYCQQNYDVPWTFGQGTKVEIKRTVAAPSVFIFPPSDEQLKSGTASVVCLLNNFYPREAKVQWKVDNALQSGNSQESVTEQDSKDSTYSLSSTLTLSKADYEKHKVYACEVTHQGLSSPVTKSFNRGEC heavy 1: EVQLLESGGGLVQPGGSLRLSCAASGFSFSSYTMSWVRQAPGKGLEWVATISGGGRDIYYPDSVKGRFTISRDNSKNTLYLQMNSLRAEDTAVYYCVLLTGRVYFALDSWGQGTLVTVSSASTKGPSVFPLAPSSKSTSGGTAALGCLVKDYFPEPVTVSWNSGALTSGVHTFPAVLQSSGLYSLSSVVTVPSSSLGTQTYICNVNHKPSNTKVDKKVEPKSCDKTHTCPPCPAPEAAGGPSVFLFPPKPKDTLMISRTPEVTCVVVDVSHEDPEVKFNWYVDGVEVHNAKTKPREEQYNSTYRVVSVLTVLHQDWLNGKEYKCKVSNKALGAPIEKTISKAKGQPREPQVCTLPPSRDELTKNQVSLSCAVKGFYPSDIAVEWESNGQPENNYKTTPPVLDSDGSFFLVSKLTVDKSRWQQGNVFSCSVMHEALHNHYTQKSLSLSPGK heavy 2: EVQLLESGGGLVQPGGSLRLSCAASGFSFSSYTMSWVRQAPGKGLEWVATISGGGRDIYYPDSVKGRFTISRDNSKNTLYLQMNSLRAEDTAVYYCVLLTGRVYFALDSWGQGTLVTVSSASTKGPSVFPLAPSSKSTSGGTAALGCLVKDYFPEPVTVSWNSGALTSGVHTFPAVLQSSGLYSLSSVVTVPSSSLGTQTYICNVNHKPSNTKVDKKV[human IgG1 Fc with changes left out here]GGGGSGGGGSGGGGSDCDIEGKDGKQYESVLMVSIDQLLDSMKEIGSNCLNNEFNFFKRHICDANKEGMFLFRAARKLRQFLKMNSTGDFDLHLLEVSEETTILLNCTGQVKGRKPAALGEAQPTKSLEENKSLKEQKKLNDLCFLKRLLQEIKTCWNKILMGTKEH | 3.28 |  |
| PD1-IL7wt (other) light: DIVMTQSPDSLAVSLGERATINCKASESVDTSDNSFIHWYQQKPGQSPKLLIYRSSTLESGVPDRFSGSGSGTDFTLTISSLQAEDVAVYYCQQNYDVPWTFGQGTKVEIKRTVAAPSVFIFPPSDEQLKSGTASVVCLLNNFYPREAKVQWKVDNALQSGNSQESVTEQDSKDSTYSLSSTLTLSKADYEKHKVYACEVTHQGLSSPVTKSFNRGEC heavy 1: EVQLLESGGGLVQPGGSLRLSCAASGFSFSSYTMSWVRQAPGKGLEWVATISGGGRDIYYPDSVKGRFTISRDNSKNTLYLQMNSLRAEDTAVYYCVLLTGRVYFALDSWGQGTLVTVSSASTKGPSVFPLAPSSKSTSGGTAALGCLVKDYFPEPVTVSWNSGALTSGVHTFPAVLQSSGLYSLSSVVTVPSSSLGTQTYICNVNHKPSNTKVDKKVEPKSCDKTHTCPPCPAPEAAGGPSVFLFPPKPKDTLMISRTPEVTCVVVDVSHEDPEVKFNWYVDGVEVHNAKTKPREEQYNSTYRVVSVLTVLHQDWLNGKEYKCKVSNKALGAPIEKTISKAKGQPREPQVCTLPPSRDELTKNQVSLSCAVKGFYPSDIAVEWESNGQPENNYKTTPPVLDSDGSFFLVSKLTVDKSRWQQGNVFSCSVMHEALHNHYTQKSLSLSPGK heavy 2: EVQLLESGGGLVQPGGSLRLSCAASGFSFSSYTMSWVRQAPGKGLEWVATISGGGRDIYYPDSVKGRFTISRDNSKNTLYLQMNSLRAEDTAVYYCVLLTGRVYFALDSWGQGTLVTVSSASTKGPSVFPLAPSSKSTSGGTAALGCLVKDYFPEPVTVSWNSGALTSGVHTFPAVLQSSGLYSLSSVVTVPSSSLGTQTYICNVNHKPSNTKVDKKV[human IgG1 Fc with changes left out here]GGGGSGGGGSGGGGSDCDIEGKDGKQYESVLMVSIDQLLDSMKEIGSNCLNNEFNFFKRHICDANKEGMFLFRAARKLRQFLKMNSTGDFDLHLLKVSEGTTILLNCTGQVKGRKPAALGEAQPTKSLEENKSLKEQKKLNDLCFLKRLLQEIKTCWNKILMGTKEH | 1 |  |
| PD1-IL7 VAR18/VAR21 partially glycosylated (other) light: DIVMTQSPDSLAVSLGERATINCKASESVDTSDNSFIHWYQQKPGQSPKLLIYRSSTLESGVPDRFSGSGSGTDFTLTISSLQAEDVAVYYCQQNYDVPWTFGQGTKVEIKRTVAAPSVFIFPPSDEQLKSGTASVVCLLNNFYPREAKVQWKVDNALQSGNSQESVTEQDSKDSTYSLSSTLTLSKADYEKHKVYACEVTHQGLSSPVTKSFNRGEC heavy 1: EVQLLESGGGLVQPGGSLRLSCAASGFSFSSYTMSWVRQAPGKGLEWVATISGGGRDIYYPDSVKGRFTISRDNSKNTLYLQMNSLRAEDTAVYYCVLLTGRVYFALDSWGQGTLVTVSSASTKGPSVFPLAPSSKSTSGGTAALGCLVKDYFPEPVTVSWNSGALTSGVHTFPAVLQSSGLYSLSSVVTVPSSSLGTQTYICNVNHKPSNTKVDKKVEPKSCDKTHTCPPCPAPEAAGGPSVFLFPPKPKDTLMISRTPEVTCVVVDVSHEDPEVKFNWYVDGVEVHNAKTKPREEQYNSTYRVVSVLTVLHQDWLNGKEYKCKVSNKALGAPIEKTISKAKGQPREPQVCTLPPSRDELTKNQVSLSCAVKGFYPSDIAVEWESNGQPENNYKTTPPVLDSDGSFFLVSKLTVDKSRWQQGNVFSCSVMHEALHNHYTQKSLSLSPG heavy 2: EVQLLESGGGLVQPGGSLRLSCAASGFSFSSYTMSWVRQAPGKGLEWVATISGGGRDIYYPDSVKGRFTISRDNSKNTLYLQMNSLRAEDTAVYYCVLLTGRVYFALDSWGQGTLVTVSSASTKGPSVFPLAPSSKSTSGGTAALGCLVKDYFPEPVTVSWNSGALTSGVHTFPAVLQSSGLYSLSSVVTVPSSSLGTQTYICNVNHKPSNTKVDKKV[human IgG1 Fc with changes left out here]GGGGSGGGGSGGGGDCDIEGKDGKQYESVLMVSIDQLLDSMKEIGSNCLNNEFNFFKRHICDANKEGMFLFRAARKLRQFLKMNSTGDFDLHLLEVSEETTILLNCAGQVKGRKPAALGEAQPTKSLEENKALKEQKKLNDLCFLKRLLQEIKTCWNKILMGTKEH | 2.17 |  |
| Reference molecule 5 (other) light: DIVMTQSPDSLAVSLGERATINCKASESVDTSDNSFIHWYQQKPGQSPKLLIYRSSTLESGVPDRFSGSGSGTDFTLTISSLQAEDVAVYYCQQNYDVPWTFGQGTKVEIKRTVAAPSVFIFPPSDEQLKSGTASVVCLLNNFYPREAKVQWKVDNALQSGNSQESVTEQDSKDSTYSLSSTLTLSKADYEKHKVYACEVTHQGLSSPVTKSFNRGEC heavy 1: EVQLLESGGGLVQPGGSLRLSCAASGFSFSSYTMSWVRQAPGKGLEWVATISGGGRDIYYPDSVKGRFTISRDNSKNTLYLQMNSLRAEDTAVYYCVLLTGRVYFALDSWGQGTLVTVSSASTKGPSVFPLAPSSKSTSGGTAALGCLVKDYFPEPVTVSWNSGALTSGVHTFPAVLQSSGLYSLSSVVTVPSSSLGTQTYICNVNHKPSNTKVDKKVEPKSCDKTHTCPPCPAPEAAGGPSVFLFPPKPKDTLMISRTPEVTCVVVDVSHEDPEVKFNWYVDGVEVHNAKTKPREEQYNSTYRVVSVLTVLHQDWLNGKEYKCKVSNKALGAPIEKTISKAKGQPREPQVCTLPPSRDELTKNQVSLSCAVKGFYPSDIAVEWESNGQPENNYKTTPPVLDSDGSFFLVSKLTVDKSRWQQGNVFSCSVMHEALHNHYTQKSLSLSPGK heavy 2: EVQLLESGGGLVQPGGSLRLSCAASGFSFSSYTMSWVRQAPGKGLEWVATISGGGRDIYYPDSVKGRFTISRDNSKNTLYLQMNSLRAEDTAVYYCVLLTGRVYFALDSWGQGTLVTVSSASTKGPSVFPLAPSSKSTSGGTAALGCLVKDYFPEPVTVSWNSGALTSGVHTFPAVLQSSGLYSLSSVVTVPSSSLGTQTYICNVNHKPSNTKVDKKV[human IgG1 Fc with changes left out here]GGGGSGGGGSGGGGSDCDIEGKDGKQYESVLMVSIDQLLDSMKEIGSNCLNNEFNFFKRHICDANKEGMFLFRAARKLRQFLKMNSTGEFDLHLLKVSEGTTILLNCTGQVKGRKPAALGEAQPTKSLEENKSLKEQKKLNDLCFLKRLLQEIKTCWNKILMGTKEH |  | 2 |
